The list shows a part of the results. Repeats are few or missing, and single values can be far off.
Legend:
Test in all cases: cell count relative to DMSO control; melanoma cells; higher = more viable cells
Settings in all cases: library dose: low library concentration; 72 h
COLO792 = system: COLO792
COLO800 = system: COLO800
COLO829 = system: COLO829
G361 = system: G361
IPC-298 = system: IPC-298
IST-MEL1 = system: IST-MEL1
LB2518-MEL = system: LB2518-MEL
LOXIMVI = system: LOXIMVI
MEL-HO = system: MEL-HO
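Further: cell number obtained by counting DAPI-stained nuclei in high-throughput microscope images with image analysis software, screen run in 1,536-well plates.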

Compound	cell count (COLO792)	cell count (COLO800)	cell count (COLO829)	cell count (G361)	cell count (IPC-298)	cell count (IST-MEL1)	cell count (LB2518-MEL)	cell count (LOXIMVI)	cell count (MEL-HO)
O=C(O)[C@@H]1[O][Sb](=[O])([O][Sb]2(=[O])[O][C@H]([C@H](O)CO)[C@H](O)[C@H](C(=O)O)[O]2)[O][C@H]([C@H](O)CO)[C@@H]1O (some centres undefined) [stibogluconate] + COc1cc(Nc2ncc(F)c(Nc3ccc4c(n3)NC(=O)C(C)(C)O4)n2)cc(OC)c1OC [Tamatinib] (first compound 2 µM, partner dose 0.4 µM)	62.4%	55.3%	99%	98.9%	84.9%	110%	68.3%	66%	97.1%
O=C(Nc1cc(C(F)(F)F)cc(C(F)(F)F)c1)c1cc(Cl)ccc1O + CC1(C)NC(=O)N(c2ccc([N+](=O)[O-])c(C(F)(F)F)c2)C1=O [nilutamide] (first compound 0.016 µM, partner dose 1 µM)	91%	105%	97.4%	88.5%	93.5%	87.6%	87.4%	92.3%	102%
O=C(O)c1ccc2c(c1)nc(Nc1cccc(Cl)c1)c1ccncc12 + Cn1cncc1[C@@](N)(c1ccc(Cl)cc1)c1ccc2c(c1)c(-c1cccc(Cl)c1)cc(=O)n2C [tipifarnib] (first compound 0.4 µM, partner dose 0.01 µM)	103%	71.3%	82.7%	91%	89.2%	105%	98.7%	93.6%	89%
O=C(O)c1ccc2c(c1)nc(Nc1cccc(Cl)c1)c1ccncc12 + OCCn1cc(-c2cnc3nnn(Cc4ccc5ncccc5c4)c3n2)cn1 [PF04217903] (first compound 0.4 µM, partner dose 1 µM)	108%	98.5%	100%	95.1%	92.1%	111%	109%	75.7%	90.1%
Cn1nnc2c(C(N)=O)ncn2c1=O [temozolomide] + CN(NC(=O)CC(=O)NN(C)C(=S)c1ccccc1)C(=S)c1ccccc1 [STA4783] (first compound 2 µM, partner dose 0.006 µM)	52.4%	48.4%	66.5%	2.02%	78.6%	79.3%	66.7%	87.6%	92.1%
O=C(O)[C@@H]1[O][Sb](=[O])([O][Sb]2(=[O])[O][C@H]([C@H](O)CO)[C@H](O)[C@H](C(=O)O)[O]2)[O][C@H]([C@H](O)CO)[C@@H]1O (some centres undefined) [stibogluconate] + CO[C@@H]1[C@H](N(C)C(=O)c2ccccc2)C[C@H]2O[C@]1(C)n1c3ccccc3c3c4c(c5c6ccccc6n2c5c31)C(=O)NC4 [Midostaurin] (first compound 2 µM, partner dose 0.08 µM)	86.9%	114%	98%	92.4%	95.8%	96.4%	94.6%	35.1%	85.4%
O=C(O)c1ccc2c(c1)nc(Nc1cccc(Cl)c1)c1ccncc12 + COc1cc2c(Oc3ccc4[nH]c(C)cc4c3F)ncnc2cc1OCCCN1CCCC1 [cediranib] (first compound 0.4 µM, partner dose 0.4 µM)	85.4%	92.5%	94.3%	90.5%	95.7%	116%	94%	65.5%	86%
O=C(O)[C@@H]1[O][Sb](=[O])([O][Sb]2(=[O])[O][C@H]([C@H](O)CO)[C@H](O)[C@H](C(=O)O)[O]2)[O][C@H]([C@H](O)CO)[C@@H]1O (some centres undefined) [stibogluconate] + CC1(C)NC(=O)N(c2ccc([N+](=O)[O-])c(C(F)(F)F)c2)C1=O [nilutamide] (first compound 2 µM, partner dose 1 µM)	111%	125%	101%	105%	97.8%	99.7%	102%	157%	103%
O=C(Nc1cc(C(F)(F)F)cc(C(F)(F)F)c1)c1cc(Cl)ccc1O + O=C(CCCCCCC(=O)Nc1ccccc1)NO [vorinostat] (first compound 0.016 µM, partner dose 0.08 µM)	91.5%	104%	95.3%	102%	107%	95.8%	93.9%	107%	93.1%
O=C(O)c1ccc2c(c1)nc(Nc1cccc(Cl)c1)c1ccncc12 + O=c1cc(-c2cccc3c2Sc2ccccc2S3)oc(N2CCOCC2)c1 [KU55933] (first compound 0.4 µM, partner dose 1 µM)	87.5%	99.4%	110%	85.8%	92.9%	101%	124%	91.2%	86.2%
O=C(Nc1cc(C(F)(F)F)cc(C(F)(F)F)c1)c1cc(Cl)ccc1O + N#Cc1c(O)c2c(-c3ccc(-c4ccccc4O)cc3)csc2[nH]c1=O [A769662] (first compound 0.016 µM, partner dose 2 µM)	101%	108%	155%	98.7%	96.8%	93.8%	101%	145%	103%
Cn1nnc2c(C(N)=O)ncn2c1=O [temozolomide] + O=C(O)c1ccc(-c2c[nH]c3ncc(-c4ccccc4)cc23)cc1C1CCCC1 [GSK650394] (first compound 2 µM, partner dose 0.16 µM)	92.4%	103%	83.1%	107%	90.8%	94.4%	97.8%	103%	86.6%
O=C(O)[C@@H]1[O][Sb](=[O])([O][Sb]2(=[O])[O][C@H]([C@H](O)CO)[C@H](O)[C@H](C(=O)O)[O]2)[O][C@H]([C@H](O)CO)[C@@H]1O (some centres undefined) [stibogluconate] + Cn1cncc1[C@@](N)(c1ccc(Cl)cc1)c1ccc2c(c1)c(-c1cccc(Cl)c1)cc(=O)n2C [tipifarnib] (first compound 2 µM, partner dose 0.01 µM)	93.9%	108%	94.2%	99.4%	92.5%	92.5%		99.6%	116%
O=C(Nc1cc(C(F)(F)F)cc(C(F)(F)F)c1)c1cc(Cl)ccc1O + Cc1ccc(NC(=O)c2cccc(N(C)C)c2)cc1NC(=O)c1ccc(O)cc1 [ZM336372] (first compound 0.016 µM, partner dose 2 µM)	98.6%	102%	85.3%	114%	80%	87%	86.9%	148%	89.9%
O=C(Nc1cc(C(F)(F)F)cc(C(F)(F)F)c1)c1cc(Cl)ccc1O + COc1ccc2c(c1)CCC1C2CCC2(C)C(NCCCCCCN3C(=O)C=CC3=O)CCC12 [U73122] (first compound 0.016 µM, partner dose 0.4 µM)	106%	134%	43.9%	97.7%	102%	91.2%		111%	94.1%
O=C(O)c1ccc2c(c1)nc(Nc1cccc(Cl)c1)c1ccncc12 + C=CCn1c(=O)c2cnc(Nc3ccc(N4CCN(C)CC4)cc3)nc2n1-c1cccc(C(C)(C)O)n1 [MK1775] (first compound 0.4 µM, partner dose 0.02 µM)	93.4%	83.6%	87.3%	89%	92.5%	101%		49.2%	93.3%
O=C(O)c1ccc2c(c1)nc(Nc1cccc(Cl)c1)c1ccncc12 + CC(C)CCN1c2nc(Nc3cc(F)c(O)c(F)c3)ncc2N(C)C(=O)C1C [BID1870] (first compound 0.4 µM, partner dose 0.2 µM)	82.4%	83.1%	99.3%	89%	90.4%	96.2%	99.6%	63.6%	77.3%
O=C(O)c1ccc2c(c1)nc(Nc1cccc(Cl)c1)c1ccncc12 + Cc1cc([N+](=O)[O-])ccc1NS(=O)(=O)c1cc(Cl)ccc1Cl [FH535] (first compound 0.4 µM, partner dose 1 µM)	92%	105%	120%	96%	94.4%	92.7%		67%	95.6%
O=C(O)[C@@H]1[O][Sb](=[O])([O][Sb]2(=[O])[O][C@H]([C@H](O)CO)[C@H](O)[C@H](C(=O)O)[O]2)[O][C@H]([C@H](O)CO)[C@@H]1O (some centres undefined) [stibogluconate] + C=CCn1c(=O)c2cnc(Nc3ccc(N4CCN(C)CC4)cc3)nc2n1-c1cccc(C(C)(C)O)n1 [MK1775] (first compound 2 µM, partner dose 0.02 µM)	91.7%	202%	109%	98.6%	105%	108%	89.7%	116%	80.7%
Cc1cc(N2CCOCC2)cc2[nH]c(-c3c(NC[C@@H](O)c4cccc(Cl)c4)cc[nH]c3=O)nc12 + CN(NC(=O)CC(=O)NN(C)C(=S)c1ccccc1)C(=S)c1ccccc1 [STA4783] (first compound 0.2 µM, partner dose 0.006 µM)	42.7%	42.3%	60.7%	75%	96.1%	80.2%	62.9%	78.8%	87.1%
O=C(Nc1cc(C(F)(F)F)cc(C(F)(F)F)c1)c1cc(Cl)ccc1O + CC(C)CCN1c2nc(Nc3cc(F)c(O)c(F)c3)ncc2N(C)C(=O)C1C [BID1870] (first compound 0.016 µM, partner dose 0.2 µM)	91.8%	135%	113%	109%	103%	94.3%	94%	127%	103%
O=C(O)c1ccc2c(c1)nc(Nc1cccc(Cl)c1)c1ccncc12 + Cc1ccc(NC(=O)c2cccc(N(C)C)c2)cc1NC(=O)c1ccc(O)cc1 [ZM336372] (first compound 0.4 µM, partner dose 2 µM)	89.3%	96.7%	66.9%	88.2%	69.6%	101%	97.3%	113%	77%
